Results: the RNAGym collection of RNA variant scans (doi:10.1073/pnas.2313332121)
Variants at the floor of the assay are shown more often than the library holds them.

B1: TPR 5TU (parent)
chain: GGAUCUUCUCGAUCUAACAAAAAAGACAAAUCUGCCACAAAGCUUGAGAGCAUCUUCGGAUGCAGAGGCGGCAGCCUUCGGUGGCGCGAUAGCGCCAACGUUCUCAACUAUGACACGCAAAACGCGUGCUCCGUUGAAUGGAGUUUAUCAUG

Variants of: B1
Experiment: polymerase ribozyme fitness, log enrichment relative to wild type (log ratio); higher = more active; in vitro selection for triplet polymerase activity
Summary of the method: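 Streptavidin-bead capture of gel-excised extended constructs, followed by RT-PCR, closed a single triplicate in vitro selection round. That round began by annealing PCR-built, transcribed mutant libraries of each subunit of a heterodimeric triplet polymerase ribozyme with a biotinylated primer, the partner subunit and triplets, then incubating them frozen at −7 °C. After Illumina sequencing of inputs and outputs, genotypes needed ≥10 input reads and ≥1 read per output. Fitness is the base-2 logarithm of genotype enrichment over wild-type enrichment, using inverse-variance-weighted replicate averages.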

Variant | polymerase ribozyme fitness (log ratio)
A16C A17G C96G C118U | -1.74
A16C A19C C51U A64G C72A U77A G84U | ≤ -4.2
A16C A19C C57G G88C G92U G143C | ≤ -4.2
A16C A19G A64U C69U G92C C99G A119U G143C | ≤ -4.2
A16C A19U G25U C54U G94A A115U C129A U144A | ≤ -4.2
A16C A20C G84U A97U U130C | -4.17
A16C A20G A24U A40G G48U G58U U77C C85U | ≤ -4.2
A16C A20U C51A C57U C95G | ≤ -4.2
A16C A21G C76G C85A | ≤ -4.2
A16C A22U A89U C93U | -3.06
A16C A22U G62A G74A G81C A106G G141C | ≤ -4.2
A16C A23C C85G | ≤ -4.2
A16C A24C G59A C85G G94A | ≤ -4.2
A16C A24U A26U C36U C79U C118G | ≤ -4.2
A16C A24U G50C U55G C85A A119U | ≤ -4.2
A16C A26G A28C C51U G83A G117A A122G G143A | ≤ -4.2
A16C A29C G42U C54U U55A G92A U145A | ≤ -4.2
A16C A30U U61A C69A C79A C96G A119G U151C | ≤ -4.2
A16C A39C U44A C85G A98U A115G | ≤ -4.2
A16C A39C U56A U90G A110G C132U | ≤ -4.2
A16C A40G U55A C76G C96A A113U | ≤ -4.2
A16C A49U C85A G126U U139G | -3.47
A16C A73G G92A | -3.3
A16C A73U G88C C95G A98U | ≤ -4.2

Variant | polymerase ribozyme fitness (log ratio)
A16C A91C U101C | ≤ -4.2
A16C A113U C118G | -3.27
A16C A150U | -0.0438
A16C C18G A40U U77C C85U C103A | ≤ -4.2
A16C C18G A47U G92A U101A | ≤ -4.2
A16C C27U A47C A60C A91U C103A C125U A138G G141A A142U U144C | ≤ -4.2
A16C C32U C72G C75A G86C C87G C99U A107U A120U G124U | ≤ -4.2
A16C C35U A41U C87G | ≤ -4.2
A16C C38A C72G C93U | ≤ -4.2
A16C C38U A64G G94U C99U A107U C118G A142C U144C | ≤ -4.2
A16C C57U A60G G86U C125U U134G | -4.12
A16C C75A C85A A119C | ≤ -4.2
A16C C85U C95A C132U | -3.71
A16C C125U U148G | ≤ -4.2
A16C G42U G83A | ≤ -4.2
A16C G42U U56C G81U C85G | ≤ -4.2
A16C G48U A52G C75U U90G G92U A137C | ≤ -4.2
A16C G48U C96U A113C | ≤ -4.2
A16C G50C A89G C95A A110U C116G | ≤ -4.2
A16C G92C | -1.11
A16C U31A C32A G92C A97C A98C C103A C116U C125U | ≤ -4.2
A16C U31C A37C A40C C95G G100A C114U | ≤ -4.2
A16C U55A A106G | -1.85
A16C U78C G83U G86A A121C | ≤ -4.2

Variant | polymerase ribozyme fitness (log ratio)
A16C U82G | -1.06
A16C U144G | -0.499
A16G A17G A19C G50A | 0.928
A16G A17U C51G C63G A64U | ≤ -4.2
A16G A19G G84U A122U | -3.73
A16G A19G U33G C57G G94A C96A | ≤ -4.2
A16G A19U G48A C54A U101G C108A A137C A150C | ≤ -4.2
A16G A20C A22C G25A A37U A40C C75U C96U U130G A138U U145G | ≤ -4.2
A16G A20U C99U U102G | ≤ -4.2
A16G A20U C118U A137U | ≤ -4.2
A16G A21C C27G G59A G67C U145G | ≤ -4.2
A16G A22U U77C C96U | ≤ -4.2
A16G A23G A37U G86A U135A | ≤ -4.2
A16G A26C G58A G86U U90A A97U C105A C149G | ≤ -4.2
A16G A26U C35A C51G U61A C72G C93U A120U C129G | ≤ -4.2
A16G A29U A49C G70A G71C C87U | ≤ -4.2
A16G A30G A73U C95G G136C | ≤ -4.2
A16G A30U C32G C51G U144A U151C | ≤ -4.2
A16G A30U C38A C96G A97C C105G A107U A110U | ≤ -4.2
A16G A30U U90G G152U | ≤ -4.2
A16G A37C G46A G50C C87A G92A A138C A147U | ≤ -4.2
A16G A37C G65U | ≤ -4.2
A16G A40C | -0.456
A16G A40U G74A A98G A107G G128U | ≤ -4.2

Variant | polymerase ribozyme fitness (log ratio)
A16G A49C G50C A150G | ≤ -4.2
A16G A49U G62A G92A C96A U130C | ≤ -4.2
A16G A66C G86U U101C | ≤ -4.2
A16G A73U G94U | -2.22
A16G C18G A49U G80A C131U U135G | ≤ -4.2
A16G C27U U55C G58A G59U C79G G86C C87A C95U U101G C103G A122U | ≤ -4.2
A16G C36G U55A G68A C76G C93G A150G | ≤ -4.2
A16G C36U A49C G88A C93G A107U G140U G143C | ≤ -4.2
A16G C43A C87U C95A C99U G100A G128A | ≤ -4.2
A16G C43U C79U C132U | ≤ -4.2
A16G C51G U56A C95U A106C C114U U144C U145C U146A | ≤ -4.2
A16G C57U C93U A142G U146C C149A A150C | ≤ -4.2
A16G C72U G136U U148G | ≤ -4.2
A16G C76A G84U A121G A122G U146A | ≤ -4.2
A16G C93A A97G | ≤ -4.2
A16G G48U G133U | -3.99
A16G G50A A142C | -3.93
A16G G81A G83A C93U G128C U134G | ≤ -4.2
A16G G86A | -0.891
A16G G100C C116A | ≤ -4.2
A16G U31A G81A A89C C96A U104C G136U | ≤ -4.2
A16G U31C A91U C93G | ≤ -4.2
A16G U44A C93G U144A U148A | ≤ -4.2
A16G U44A G74U C93U U102G U144C | ≤ -4.2

Variant | polymerase ribozyme fitness (log ratio)
A16G U45A C72U C93G U151A | ≤ -4.2
A16G U61A C99G | ≤ -4.2
A16G U134A | -3.15
A16U A17C G25C U56A A60C G84C U90C C95A | ≤ -4.2
A16U A17C G50A U56A C87U G88A G117U | ≤ -4.2
A16U A19C A60G C85A G92A G133A A142U | ≤ -4.2
A16U A19G U31A C38U G42C U44G G59U C96G | ≤ -4.2
A16U A19U | -2.39
A16U A20C A91U G141U | ≤ -4.2
A16U A21U U55A C57U G141A | ≤ -4.2
A16U A22G A29U G80C C125U | ≤ -4.2
A16U A23C A24C C69A G70C C118U U139A U145G | ≤ -4.2
A16U A23G U53G C54A C63U | ≤ -4.2
A16U A24C G48U G81A C95U C96A C123U | ≤ -4.2
A16U A24C G80U | ≤ -4.2
A16U A24U C27U A39U U55A C76A | ≤ -4.2
A16U A24U C57A G68C C93G A107C U146G | ≤ -4.2
A16U A26C G50C G62A | ≤ -4.2
A16U A26G G68C C108A U111G C123U C125U U144G | ≤ -4.2
A16U A26U A91U C116U G117C | ≤ -4.2
A16U A28C C54U G71U G92C C131U G136C | ≤ -4.2
A16U A28U C79A G84A G86A | ≤ -4.2
A16U A28U G34A C35U U55G | ≤ -4.2
A16U A29G A30U U53A U55A G62C U77G C116U | ≤ -4.2

Variant | polymerase ribozyme fitness (log ratio)
A16U A29G G88A | ≤ -4.2
A16U A29U U45G U61G C93A | ≤ -4.2
A16U A39C A49C C96U C125U | ≤ -4.2
A16U A39G A40C C54U U101G U139C U144C | ≤ -4.2
A16U A39G C76U C99G C105U G124C | ≤ -4.2
A16U A47G C51U C95A C114U | -3.93
A16U A47G G92A C96U U111G C114U | ≤ -4.2
A16U A52G A64U U77A C87A G143C | ≤ -4.2
A16U A52G U104G U134G | ≤ -4.2
A16U A64U A66U G94A C108U A150G | ≤ -4.2
A16U A91G G112C | ≤ -4.2
A16U A98U A122G U146G | -3.26
A16U A150G | -2.95
A16U C18G A21G A22U C51U U53G G68A G81C | ≤ -4.2
A16U C18G A52G G84A C85G G92C G143A | ≤ -4.2
A16U C18U A28U G34A G88A A89U C125A | ≤ -4.2
A16U C18U C51A C93U A106C C116G | ≤ -4.2
A16U C27U A29C A49G C95U C105G U146A | ≤ -4.2
A16U C27U A30U G88U A106G C129G U148G | ≤ -4.2
A16U C32U A40C C95G C99U G140A A142G | ≤ -4.2
A16U C35A G70A | ≤ -4.2
A16U C35U A49U G59A C75U A91G U135C U145A | ≤ -4.2
A16U C35U U55A C57U U90C C114U A121U G133U | ≤ -4.2
A16U C36A C116G U134A | ≤ -4.2

Variant | polymerase ribozyme fitness (log ratio)
A16U C38A C75A C114U G143U | ≤ -4.2
A16U C38U A39U U53G U55A U90C C96G U101G C114U | ≤ -4.2
A16U C38U G58C C85G | ≤ -4.2
A16U C38U G58C U82C C95A U109A C125G U134C | ≤ -4.2
A16U C72G G80C G81U C93G C105A A115U | ≤ -4.2
A16U C79G | ≤ -4.2
A16U C85A | -2.74
A16U C85G | -3.36
A16U C93G | ≤ -4.2
A16U C103G | -3.31
A16U G25A C57A G84C U144C | ≤ -4.2
A16U G25U A49G U77C A106C | ≤ -4.2
A16U G25U G42U U55A C96G C99U U148A | ≤ -4.2
A16U G48C U53G C96G A113U | ≤ -4.2
A16U G59A U78C C149G | ≤ -4.2
A16U G70C G81U A89G | ≤ -4.2
A16U G74A G84U U90C C118U A121U | ≤ -4.2
A16U G81A | -1.95
A16U G83A A110G G112C G141U | ≤ -4.2
A16U G124U | -2.37
A16U U31A G83A C105U | -1.17
A16U U33C C38U G140U | ≤ -4.2
A16U U44G A52G G58U A137G | ≤ -4.2
